# Results reported in PubChem BioAssay (NCATS).
# Values joined by “and” are separate entries in the source; they are usually repeats but may differ in a detail not shown here. Equal entries are not always repeated. The shares of active, inactive and inconclusive entries below differ from those in the screen. Potencies of inconclusive entries are doubtful fits and often do not repeat. Active and inactive are the calls of the source. Calls come from the whole dose curve; as a rule, active = well fitted cell-killing curve with a large enough effect; inconclusive = small, poorly fitted or top-dose-only effect, or effect the other way; inactive = flat fitted curve, though single readings scatter.
# Tested on: SKOV3
# Assay: Primary qHTS to identify gynecologic anti-cancer compounds using libraries of approved drugs and bioactive compounds (AID 1345084); note: nearly all actives have a fitted effect of over 55% in size
# Settings: Gynecologic cancer cell panel viability, ATPlite luminescence, 48 h; series mostly up to 57.5 µM
# Summary of the method: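 Cell viability after 48 h drug treatment, ATPlite luminescence readout; five doses.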
# Potency is the fitted concentration of half-maximal effect; tags give direction and shape of the fitted curve.
row,Compound,Potency
1,C[C@]12CC[C@H](O[C@@H]3O[C@H](CO)[C@@H](O)[C@H](O)[C@H]3O[C@@H]3O[C@H](CO)[C@@H](O)[C@H](O)[C@H]3O)CC1=CC[C@@H]1[C@@H]2CC[C@]2(C)[C@@H](C3=CC(=O)OC3)CC[C@]12O,"inconclusive: 8.91 µM [cytotoxic, single point]"
2,CC[C@@]1(O)C(=O)OCc2c1cc1n(c2=O)Cc2cc3c(OC)cccc3nc2-1,active: 0.447 µM
3,C[C@@H]1C[C@@H](O)[C@]2(O)O[C@@H]3C[C@@]4(C=O)C(CC[C@@H]5C4CC[C@]4(C)[C@@](O)(C6=CC(=O)OC6)CC[C@]54O)C[C@H]3OC2O1 (stereo partly drawn),"inconclusive: 3.16 µM [cytotoxic, full curve, poor fit]"
4,C[C@@H]1CCC/C=C/[C@H]2C[C@@H](O)C[C@@H]2[C@@H](O)/C=C/C(=O)O1,active: 0.355 µM
5,COC1CC(O[C@H]2CC[C@@]3(C)C(CCC4C3CC[C@]3(C)[C@@H](C5=CC(=O)OC5)CC[C@]43O)C2)OC(C)C1O (stereo partly drawn),active: 0.126 µM
6,Cc1ccc([N+](=O)[O-])[c]2c1[O][Hg]2,active: 3.98 µM
7,COC1C(O)C(C)OC(OC2C(CO)O[C@@H](O[C@@H]3CC4CCC5C(CC[C@]6(C)[C@@H](C7=CC(=O)OC7)CC[C@]56O)[C@@]4(C)[C@H](O)C3)C(O)C2O)C1O (stereo partly drawn),active: 2.82 µM
8,C[C@H]1O[C@@H](O[C@H]2[C@@H](O)C[C@H](O[C@H]3[C@@H](O)C[C@H](O[C@H]4CC[C@@]5(C)[C@H](CC[C@@H]6[C@@H]5CC[C@]5(C)[C@@H](C7=CC(=O)OC7)CC[C@]65O)C4)O[C@@H]3C)O[C@@H]2C)C[C@H](O)[C@@H]1O,active: 251 nM and active: 112 nM
